Results from publication PMC6212790.
The list shows a part of the results. At the low end of the ranking the order means little.

Molecular target: T1, GST-Rok (full length) (UniProt O34857)
T1 sequence: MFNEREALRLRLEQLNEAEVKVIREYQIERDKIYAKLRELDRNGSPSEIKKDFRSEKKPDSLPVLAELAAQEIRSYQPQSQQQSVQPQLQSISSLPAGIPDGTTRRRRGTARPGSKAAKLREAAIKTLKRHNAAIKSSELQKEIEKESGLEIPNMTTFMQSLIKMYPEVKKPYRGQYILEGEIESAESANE
Experiment: protein binding microarray;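 further: rank score from −0.5 (least bound) to 0.5 (best bound)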
Details: Rok is a gene silencer of Bacillus subtilis; high values mean tight binding; most listed sequences are background and not binding sites; double strand, one strand shown

Sequence | binding signal [E-score]
GGTAGCAA | 0.241
CACGTGAA | 0.147
GAATGAGA | 0.00563
CAGTATTC | -0.0222
AAGGACGT | -0.0971
ATTCTTCA | 0.0308
AAGTGCGC | 0.0011
AGAATAAG | 0.105
GCCTCACA | -0.117
CTCCAGTA | 0.0749
ACCCAGGC | -0.376
GTTTTGGA | -0.00232
ACATACCG | 0.263
AGTTGCCG | -0.0803
CATTACTA | 0.296
CTGACATA | -0.043
GATTGAGC | 0.0396
CTCGTATA | 0.0688
GTGCGACA | 0.0889
ATGGCTGC | -0.244
CATGGACA | 0.0451
GACACGCA | -0.141
GAGCCCGC | -0.388
AGGCGATG | -0.112
TACCTAAA | 0.37

Sequence | binding signal [E-score]
CTATCCCA | 0.12
CACGTAAA | 0.131
AAGTAGCG | 0.165
GACTGATC | -0.269
AGGAGGCG | -0.322
ATCTTGTG | 0.135
CGGCGCTC | -0.278
GATTAAGA | 0.0426
GGGATTGA | -0.112
GAATAATA | 0.271
CTGGGGGA | -0.481
ACAGGATG | -0.149
ATATACGA | 0.23
TCTGTAAA | 0.165
ACCAGCTA | 0.219
CACACAAG | -0.258
GAATCACC | -0.113
ACGTCCTA | 0.211
ATGTAAAA | 0.295
CGTGATAG | 0.217
ACAAATCC | -0.2
GATGCAGC | -0.132
CCACCGCA | -0.0639
AAAGTTAG | 0.198
GGCGAGTA | 0.133

Sequence | binding signal [E-score]
AGGATAAT | 0.189
CGGCTAAC | -0.106
AAAGTCGT | 0.0806
GTTGTTGA | 0.133
CGTTTACC | -0.0102
GACAACAA | -0.0289
TAGAACGA | 0.121
AGCTTTTC | 0.0662
TCCCTGAA | -0.247
CCACTGGA | -0.14
ATGACACG | -0.146
ACCAAGGG | -0.297
ATGGACAC | 0.0112
GCACCGAA | -0.277
CTTCGCGA | -0.2
GCATACCA | 0.184
CCACAAAC | 0.0384
ATCCAAAG | -0.0521
GTTTGGCA | -0.116
CCTGAAGC | -0.161
TACTACTA | 0.428
GTCGTCGA | -0.0466
CCGCGCGA | -0.164
GCTTGCCA | -0.163
GCAGGTCA | -0.166

Sequence | binding signal [E-score]
GATATTCC | 0.209
AGAGAGAG | -0.164
CCGTCCAC | -0.219
GATTACTA | 0.2
GCATCGAA | 0.00962
ACAGGGCC | -0.263
AAGATGAA | 0.00509
CTCTTCTC | -0.219
TGAGTAAA | 0.111
CTACAGAC | 0.12
CTTTGGGC | -0.295
ATTTCATG | 0.0972
TCCGGAAA | -0.00103
CGACAGAA | -0.0304
AACCCCTA | -0.191
GAAGCCCC | -0.442
ACAGAGTC | -0.161
ACCGGACA | -0.0843
CGAATATA | 0.321
ATAGGCTC | -0.0728
GATGAGGA | -0.233
AACCTCAA | -0.0878
CCCGATAA | 0.123
ATGACCAG | -0.0938
GTATTCCA | 0.0601

Sequence | binding signal [E-score]
AGAACAGC | -0.0769
ATGATGGG | -0.0753
CCGGGGGA | -0.378
AATAGGGG | -0.179
ATCCGCTC | -0.117
AAGGTGTC | -0.258
CCCGGACA | -0.0453
ACCTGGGG | -0.355
ACCCTTTA | -0.0468
CTTGTTAC | 0.00671
GCTGCAGC | -0.185
GCAAACAC | -0.0266
AAGCTCGC | -0.0384
ACAACCGG | -0.0681
CAAATACG | 0.143
ATATGCTC | 0.0946
AGGGAGGG | -0.159
CGATCAAA | 0.143
CACTCTCG | -0.0591
CAAGGAGG | -0.338
ATAGCTAT | 0.373
ACCGCCCT | -0.115
AGCCTGAT | -0.0266
TAAAATGA | 0.213
GTGCGAAA | -0.0226

Sequence | binding signal [E-score]
AGCACAGA | -0.0338
ATCGCAAT | 0.167
AATGTAGA | 0.389
CACGTAGG | -0.266
AACCAAAT | 0.0861
AACCGAGG | -0.237
AGAACATA | 0.183
ACTCGATC | 0.0884
GCGAAGCA | -0.268
GACGCATC | -0.0842
GTCTCATA | 0.0567
ATGCCCAC | -0.184
ACTGGATA | 0.192
CATGCGGC | -0.125
CGATAATA | 0.23
ACCCGGTC | -0.145
GTCCAAAA | -0.0623
CCCATTAG | -0.0981
CAAGTGGG | -0.178
CCGCTTCC | -0.13
AATTTTAA | 0.149
ACGTACAC | 0.134
GAGTGCCC | -0.147
CGTGAACC | -0.0228
GCGCAAGC | -0.204

Sequence | binding signal [E-score]
ATGCAAGG | -0.0549
ACAACCAG | -0.17
AGTGGCAC | -0.161
TCCATGAA | -0.159
CATAGGCG | 0.0239
TAACGTTA | 0.266
AGACACAC | -0.123
GCTGTACC | -0.0639
TAGCTTAA | 0.0214
CTGGCCTA | -0.342
CTTAGAGA | -0.111
AGCCTTTC | -0.214
ACTTTTGG | 0.0305
ACATTGGA | 0.0689
AACTTGAA | 0.118
CCCAGGAG | -0.221
CAGGCAGC | -0.283
CGGTTGTC | -0.191
ATACATAA | 0.316
GTTATGCA | 0.323
ACCAAAGT | 0.17
ACCATATG | 0.249
